The results in this text go back to the supplement of paper PMC9588766.

Each structure is given as a SMILES string. Where a name gives a salt, the structure may show the parent alone. Whole data set: some 1,900 compounds, median “cell viability of compound + 1 nM pemigatinib relative to pemigatinib-only (DMSO) wells” near 0.95, cut for the lowest 2% near 0.22. The list shows a part of the results.

The test has as its system PDC-DUC18828. The experiment in a line: cell viability of compound + 1 nM pemigatinib relative to pemigatinib-only (DMSO) wells (fraction); PDC-DUC18828 is a patient-derived cholangiocarcinoma cell line; higher = less growth inhibition. Particulars: first compound 1 µM; pemigatinib concentration 1 nM; 72 h. On the procedure: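 Selleck Bioactive library screen in the patient-derived FGFR2 fusion-positive ICC cell line PDC-DUC18828 (500 cells/well). Each compound was tested at 1 uM with 1 nM pemigatinib, in triplicate, for 72 h. Viability was read by CellTiter-Glo and normalised to plate DMSO controls. Value is the paper's averaged normalised viability.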
As for `CNC(=O)c1cc(Oc2ccc(NC(=O)Nc3ccc(Cl)c(C(F)(F)F)c3)c(F)c2)ccn1` [Regorafenib (BAY 73-4506)] + CCN1C(=O)N(c2c(F)c(OC)cc(OC)c2F)Cc2cnc3[nH]c(CN4CCOCC4)cc3c21 [pemigatinib], the cell viability stood at 0.971.

With `CC(C)(C)NCC(O)COc1cccc2c1CCC(=O)N2` (centres undefined) [Carteolol HCl] + CCN1C(=O)N(c2c(F)c(OC)cc(OC)c2F)Cc2cnc3[nH]c(CN4CCOCC4)cc3c21 [pemigatinib], the cell viability came to 0.986.

Take `CN1CCC(=C2c3ccccc3CCc3cccnc32)CC1` [Azatadine dimaleate] + CCN1C(=O)N(c2c(F)c(OC)cc(OC)c2F)Cc2cnc3[nH]c(CN4CCOCC4)cc3c21 [pemigatinib]: the cell viability was 0.658.

In the case of `Nc1nc2ccc(OC(F)(F)F)cc2s1` [Riluzole] + CCN1C(=O)N(c2c(F)c(OC)cc(OC)c2F)Cc2cnc3[nH]c(CN4CCOCC4)cc3c21 [pemigatinib], the cell viability came out at 1.03.

`COc1ccc2c(c1)c(CC(=O)O)c(C)n2C(=O)c1ccc(Cl)cc1` [Indomethacin] + CCN1C(=O)N(c2c(F)c(OC)cc(OC)c2F)Cc2cnc3[nH]c(CN4CCOCC4)cc3c21 [pemigatinib]: the cell viability is 0.967.

On to `CC(C)C[C@H](NC(=O)[C@@H](NC(=O)c1cccc(-c2ccccc2)n1)[C@@H](C)O)B(O)O` + CCN1C(=O)N(c2c(F)c(OC)cc(OC)c2F)Cc2cnc3[nH]c(CN4CCOCC4)cc3c21 [pemigatinib], for which the cell viability was found to be 0.0169.

For `CNC(=O)c1cc(Oc2ccc(NC(=O)Nc3cc(C(C)(C)C)nn3-c3ccc4ncccc4c3)c(F)c2)ccn1` [DCC-2036 (Rebastinib)] + CCN1C(=O)N(c2c(F)c(OC)cc(OC)c2F)Cc2cnc3[nH]c(CN4CCOCC4)cc3c21 [pemigatinib], the cell viability worked out at 0.995.

On to `OC[C@H]1O[C@H](O[C@]2(CCl)O[C@H](CCl)[C@@H](O)[C@@H]2O)[C@H](O)[C@@H](O)[C@H]1Cl` [Sucralose] + CCN1C(=O)N(c2c(F)c(OC)cc(OC)c2F)Cc2cnc3[nH]c(CN4CCOCC4)cc3c21 [pemigatinib], for which the cell viability was 0.967.

Take `C[C@@H]1CCO[C@H]2Cn3cc(C(=O)NCc4ccc(F)cc4F)c(=O)c(O)c3C(=O)N12` + CCN1C(=O)N(c2c(F)c(OC)cc(OC)c2F)Cc2cnc3[nH]c(CN4CCOCC4)cc3c21 [pemigatinib]: the cell viability was 0.997.

`O=C(C1CCCCC1)N1CC(=O)N2CCc3ccccc3C2C1` (centres undefined) [Praziquantel] + CCN1C(=O)N(c2c(F)c(OC)cc(OC)c2F)Cc2cnc3[nH]c(CN4CCOCC4)cc3c21 [pemigatinib]: the cell viability worked out at 0.929.

As to `C[C@]1(O)C[C@@H](c2nc(-c3ccc4ccc(-c5ccccc5)nc4c3)c3c(N)nccn32)C1` [OSI-906 (Linsitinib)] + CCN1C(=O)N(c2c(F)c(OC)cc(OC)c2F)Cc2cnc3[nH]c(CN4CCOCC4)cc3c21 [pemigatinib], the cell viability amounted to 0.866.

Regarding `COc1cc2nccc(Oc3ccc(NC(=O)Nc4cc(C)on4)c(Cl)c3)c2cc1OC` [Tivozanib (AV-951)] + CCN1C(=O)N(c2c(F)c(OC)cc(OC)c2F)Cc2cnc3[nH]c(CN4CCOCC4)cc3c21 [pemigatinib], the cell viability is 0.868.

`CC(C)(C#N)c1cc(Cn2cncn2)cc(C(C)(C)C#N)c1` [Anastrozole] + CCN1C(=O)N(c2c(F)c(OC)cc(OC)c2F)Cc2cnc3[nH]c(CN4CCOCC4)cc3c21 [pemigatinib]: the cell viability worked out at 0.981.

Regarding `C[C@@H](O)[C@H]1C(=O)N2C(C(=O)O)=C(S[C@@H]3CN[C@H](CNS(N)(=O)=O)C3)[C@H](C)[C@H]12` [Doripenem Hydrate] + CCN1C(=O)N(c2c(F)c(OC)cc(OC)c2F)Cc2cnc3[nH]c(CN4CCOCC4)cc3c21 [pemigatinib], the cell viability stood at 0.992.

With `COc1cccc(-n2c(=O)[nH]c3cc(Cl)n(-c4ccc(-c5cccc(OC)c5O)cc4)c3c2=O)c1` + CCN1C(=O)N(c2c(F)c(OC)cc(OC)c2F)Cc2cnc3[nH]c(CN4CCOCC4)cc3c21 [pemigatinib], the cell viability worked out at 0.951.

With `COc1cccc(-c2cc(=O)c3ccccc3o2)c1N` + CCN1C(=O)N(c2c(F)c(OC)cc(OC)c2F)Cc2cnc3[nH]c(CN4CCOCC4)cc3c21 [pemigatinib], the cell viability stood at 0.929.

Take `CN(C)CCOC(C)(c1ccccc1)c1ccccn1` (centres undefined) [Doxylamine Succinate] + CCN1C(=O)N(c2c(F)c(OC)cc(OC)c2F)Cc2cnc3[nH]c(CN4CCOCC4)cc3c21 [pemigatinib]: the cell viability turned out to be 0.946.

Take `C=CCNC(N)=S` [Allylthiourea] + CCN1C(=O)N(c2c(F)c(OC)cc(OC)c2F)Cc2cnc3[nH]c(CN4CCOCC4)cc3c21 [pemigatinib]: the cell viability was determined as 0.985.

As for `CNC(=O)c1cccc(-c2ccc3c(N4CCOC[C@@H]4C)nc(N4CCOC[C@@H]4C)nc3n2)c1` + CCN1C(=O)N(c2c(F)c(OC)cc(OC)c2F)Cc2cnc3[nH]c(CN4CCOCC4)cc3c21 [pemigatinib], the cell viability was 0.255.

Consider `Nc1ccn([C@H]2CC[C@@H](CO)O2)c(=O)n1` [Zalcitabine] + CCN1C(=O)N(c2c(F)c(OC)cc(OC)c2F)Cc2cnc3[nH]c(CN4CCOCC4)cc3c21 [pemigatinib], for which the cell viability was found to be 1.01.

As to `CCc1cc(Nc2nccc(-c3c(-c4ccc(OC)c(C(=O)Nc5c(F)cccc5F)c4)nc4ccccn34)n2)c(OC)cc1N1CCC(N2CCN(S(C)(=O)=O)CC2)CC1` + CCN1C(=O)N(c2c(F)c(OC)cc(OC)c2F)Cc2cnc3[nH]c(CN4CCOCC4)cc3c21 [pemigatinib], the cell viability was 1.01.

In the case of `CNC[C@H](O)c1ccc(O)c(O)c1` [Epinephrine Bitartrate] + CCN1C(=O)N(c2c(F)c(OC)cc(OC)c2F)Cc2cnc3[nH]c(CN4CCOCC4)cc3c21 [pemigatinib], the cell viability was found to be 0.983.

In the case of `CNC[C@H](O)c1ccc(O)c(O)c1` [Epinephrine HCl] + CCN1C(=O)N(c2c(F)c(OC)cc(OC)c2F)Cc2cnc3[nH]c(CN4CCOCC4)cc3c21 [pemigatinib], the cell viability came out at 0.879.

Take `O=C(NCc1ccccc1)c1csc(Nc2ccncn2)n1` [Thiazovivin] + CCN1C(=O)N(c2c(F)c(OC)cc(OC)c2F)Cc2cnc3[nH]c(CN4CCOCC4)cc3c21 [pemigatinib]: the cell viability came out at 0.977.
